# The list shows a part of the results. Single values are uncertain, as repeats are few or missing.
# System: RPMI7951
# Experiment: cell count relative to DMSO control; melanoma cells; higher = more viable cells
# Settings: library dose: standard library concentration; 72 h
# 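Note: cells treated in 1,536-well plates, then fixed and DAPI-stained, with nuclei counted from automated high-throughput microscope images.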
row,SMILES,cell count [%]
1,"C=C(c1ccc(C(=O)O)cc1)c1cc2c(cc1C)C(C)(C)CCC2(C)C [Bexarotene] + O=c1cc(-c2cccc3c2Sc2ccccc2S3)oc(N2CCOCC2)c1 [KU55933] (first compound 10 µM, partner dose 5 µM)",88.9
2,"CS(=O)(=O)c1ccc(C(=O)Nc2ccc(Cl)c(-c3ccccn3)c2)c(Cl)c1 [vismodegib] + OCc1c[nH]c2ccccc12 [Indole-3-carbinol] (first compound 5 µM, partner dose 4 µM)",107
3,"CN(c1ncccc1CNc1nc(Nc2ccc3c(c2)CC(=O)N3)ncc1C(F)(F)F)S(C)(=O)=O + CC1(C)NC(=O)N(c2ccc([N+](=O)[O-])c(C(F)(F)F)c2)C1=O [nilutamide] (first compound 0.4 µM, partner dose 5 µM)",59.8
4,"CS(=O)(=O)c1ccc(C(=O)Nc2ccc(Cl)c(-c3ccccn3)c2)c(Cl)c1 [vismodegib] + NCC(=O)Nc1ccc(-n2nc(C(F)(F)F)cc2-c2ccc3c(ccc4ccccc43)c2)cc1 [OSU03012] (first compound 5 µM, partner dose 5 µM)",90.7
5,"CS(=O)(=O)c1ccc(C(=O)Nc2ccc(Cl)c(-c3ccccn3)c2)c(Cl)c1 [vismodegib] + C[C@]1(c2nc3c(C(N)=O)cccc3[nH]2)CCCN1 [Veliparib] (first compound 5 µM, partner dose 7 µM)",101
6,"NC1(c2ccc(-c3nc4ccn5c(=O)[nH]nc5c4cc3-c3ccccc3)cc2)CCC1 + C=CCn1c(=O)c2cnc(Nc3ccc(N4CCN(C)CC4)cc3)nc2n1-c1cccc(C(C)(C)O)n1 [MK1775] (first compound 2 µM, partner dose 0.1 µM)",66.7

# System: RVH-421
# Experiment: as above
# Settings: library dose: standard library concentration; 72 h
row,SMILES,cell count [%]
1,"CCCS(=O)(=O)Nc1ccc(F)c(C(=O)c2c[nH]c3ncc(Cl)cc23)c1F + COc1ccc2c(c1)CCC1C2CCC2(C)C(NCCCCCCN3C(=O)C=CC3=O)CCC12 [U73122] (first compound 0.4 µM, partner dose 2 µM)",82.4
2,"CCCS(=O)(=O)Nc1ccc(F)c(C(=O)c2c[nH]c3ncc(Cl)cc23)c1F + C#Cc1cccc(Nc2ncnc3cc(OCCOC)c(OCCOC)cc23)c1 [erlotinib] (first compound 0.4 µM, partner dose 4 µM)",78.2
3,"CS(=O)(=O)c1ccc(C(=O)Nc2ccc(Cl)c(-c3ccccn3)c2)c(Cl)c1 [vismodegib] + COc1ccc(Cl)c(Nc2nc3ccccc3nc2NS(=O)(=O)c2cccc(NC(=O)C(C)(C)N)c2)c1 [XL147] (first compound 5 µM, partner dose 4 µM)",16.3
4,"CS(=O)(=O)c1ccc(C(=O)Nc2ccc(Cl)c(-c3ccccn3)c2)c(Cl)c1 [vismodegib] + Cn1c(Nc2ccc(C(F)(F)F)cc2)nc2cc(Oc3ccnc(-c4ncc(C(F)(F)F)[nH]4)c3)ccc21 [CHIR265] (first compound 5 µM, partner dose 0.4 µM)",54.6
5,"C=C(c1ccc(C(=O)O)cc1)c1cc2c(cc1C)C(C)(C)CCC2(C)C [Bexarotene] + C=CCn1c(=O)c2cnc(Nc3ccc(N4CCN(C)CC4)cc3)nc2n1-c1cccc(C(C)(C)O)n1 [MK1775] (first compound 10 µM, partner dose 0.1 µM)",62.7
6,"CS(=O)(=O)c1ccc(C(=O)Nc2ccc(Cl)c(-c3ccccn3)c2)c(Cl)c1 [vismodegib] + Oc1cc(-c2nc(-c3ccccc3)[nH]c2-c2ccncc2)ccc1Cl [L779450] (first compound 5 µM, partner dose 1 µM)",98.3
7,"CN(c1ncccc1CNc1nc(Nc2ccc3c(c2)CC(=O)N3)ncc1C(F)(F)F)S(C)(=O)=O + C=C(c1ccc(C(=O)O)cc1)c1cc2c(cc1C)C(C)(C)CCC2(C)C [Bexarotene] (first compound 0.4 µM, partner dose 10 µM)",79.1
8,"CS(=O)(=O)c1ccc(C(=O)Nc2ccc(Cl)c(-c3ccccn3)c2)c(Cl)c1 [vismodegib] + O=C1NC(=O)/C(=C/c2ccc(-c3ccc(F)cc3O)o2)S1 [AS252424] (first compound 5 µM, partner dose 5 µM)",120
9,"NC1(c2ccc(-c3nc4ccn5c(=O)[nH]nc5c4cc3-c3ccccc3)cc2)CCC1 + CN(NC(=O)CC(=O)NN(C)C(=S)c1ccccc1)C(=S)c1ccccc1 [STA4783] (first compound 2 µM, partner dose 0.03 µM)",50.7
10,"CS(=O)(=O)c1ccc(C(=O)Nc2ccc(Cl)c(-c3ccccn3)c2)c(Cl)c1 [vismodegib] + NC1(c2ccc(-c3nc4ccn5c(=O)[nH]nc5c4cc3-c3ccccc3)cc2)CCC1 [MK2206] (first compound 5 µM, partner dose 2 µM)",92.2
11,"CN(c1ncccc1CNc1nc(Nc2ccc3c(c2)CC(=O)N3)ncc1C(F)(F)F)S(C)(=O)=O + O=C(CCCCCCC(=O)Nc1ccccc1)NO [vorinostat] (first compound 0.4 µM, partner dose 0.4 µM)",86.5
12,"CS(=O)(=O)c1ccc(C(=O)Nc2ccc(Cl)c(-c3ccccn3)c2)c(Cl)c1 [vismodegib] + Nc1ncn([C@H]2C[C@H](O)[C@@H](CO)O2)c(=O)n1 [decitabine] (first compound 5 µM, partner dose 0.5 µM)",121
13,"CN(c1ncccc1CNc1nc(Nc2ccc3c(c2)CC(=O)N3)ncc1C(F)(F)F)S(C)(=O)=O + O=C(Nc1cccc(Cl)c1)Nc1ncc(CCNc2ncnc3ccsc23)s1 [SNS314] (first compound 0.4 µM, partner dose 0.004 µM)",66.7
14,"C=C(c1ccc(C(=O)O)cc1)c1cc2c(cc1C)C(C)(C)CCC2(C)C [Bexarotene] + COc1ccc(-c2ccc3c(N4CCOCC4)nc(N4C[C@@H](C)O[C@@H](C)C4)nc3n2)cc1CO [KU0063794] (first compound 10 µM, partner dose 0.1 µM)",68.6
15,"C=C(c1ccc(C(=O)O)cc1)c1cc2c(cc1C)C(C)(C)CCC2(C)C [Bexarotene] + Cn1cncc1[C@@](N)(c1ccc(Cl)cc1)c1ccc2c(c1)c(-c1cccc(Cl)c1)cc(=O)n2C [tipifarnib] (first compound 10 µM, partner dose 0.05 µM)",78.3
16,"CCCS(=O)(=O)Nc1ccc(F)c(C(=O)c2c[nH]c3ncc(Cl)cc23)c1F + CCN(CC)CCCCNc1ncc2cc(-c3cc(OC)cc(OC)c3)c(NC(=O)NC(C)(C)C)nc2n1 [PD173074] (first compound 0.4 µM, partner dose 0.5 µM)",94.2
17,"CN(c1ncccc1CNc1nc(Nc2ccc3c(c2)CC(=O)N3)ncc1C(F)(F)F)S(C)(=O)=O + Cn1c(Nc2ccc(C(F)(F)F)cc2)nc2cc(Oc3ccnc(-c4ncc(C(F)(F)F)[nH]4)c3)ccc21 [CHIR265] (first compound 0.4 µM, partner dose 0.4 µM)",58.4
18,"C=C(c1ccc(C(=O)O)cc1)c1cc2c(cc1C)C(C)(C)CCC2(C)C [Bexarotene] + CC(=O)c1c(C)c2cnc(Nc3ccc(N4CCNCC4)cn3)nc2n(C2CCCC2)c1=O [palbociclib] (first compound 10 µM, partner dose 0.2 µM)",54.7
19,"C=C(c1ccc(C(=O)O)cc1)c1cc2c(cc1C)C(C)(C)CCC2(C)C [Bexarotene] + Cc1nc(Nc2ncc(C(=O)Nc3c(C)cccc3Cl)s2)cc(N2CCN(CCO)CC2)n1 [dasatanib] (first compound 10 µM, partner dose 0.02 µM)",54.8
20,"CCCS(=O)(=O)Nc1ccc(F)c(C(=O)c2c[nH]c3ncc(Cl)cc23)c1F + NCC(=O)Nc1ccc(-n2nc(C(F)(F)F)cc2-c2ccc3c(ccc4ccccc43)c2)cc1 [OSU03012] (first compound 0.4 µM, partner dose 5 µM)",72.9
21,"NC1(c2ccc(-c3nc4ccn5c(=O)[nH]nc5c4cc3-c3ccccc3)cc2)CCC1 + OCCn1cc(-c2cnc3nnn(Cc4ccc5ncccc5c4)c3n2)cn1 [PF04217903] (first compound 2 µM, partner dose 5 µM)",79.4
22,"C=C(c1ccc(C(=O)O)cc1)c1cc2c(cc1C)C(C)(C)CCC2(C)C [Bexarotene] + C#Cc1cccc(Nc2ncnc3cc(OCCOC)c(OCCOC)cc23)c1 [erlotinib] (first compound 10 µM, partner dose 4 µM)",82.9
23,"CS(=O)(=O)c1ccc(C(=O)Nc2ccc(Cl)c(-c3ccccn3)c2)c(Cl)c1 [vismodegib] + CC(C)CCN1c2nc(Nc3cc(F)c(O)c(F)c3)ncc2N(C)C(=O)C1C [BID1870] (first compound 5 µM, partner dose 1 µM)",77.7
24,"NC1(c2ccc(-c3nc4ccn5c(=O)[nH]nc5c4cc3-c3ccccc3)cc2)CCC1 + COc1cc2c(Oc3ccc4[nH]c(C)cc4c3F)ncnc2cc1OCCCN1CCCC1 [cediranib] (first compound 2 µM, partner dose 2 µM)",70
25,"C=C(c1ccc(C(=O)O)cc1)c1cc2c(cc1C)C(C)(C)CCC2(C)C [Bexarotene] + COc1ccc2c(c1)CCC1C2CCC2(C)C(NCCCCCCN3C(=O)C=CC3=O)CCC12 [U73122] (first compound 10 µM, partner dose 2 µM)",74.5
26,"NC1(c2ccc(-c3nc4ccn5c(=O)[nH]nc5c4cc3-c3ccccc3)cc2)CCC1 + CS(=O)(=O)CCNCc1ccc(-c2ccc3ncnc(Nc4ccc(OCc5cccc(F)c5)c(Cl)c4)c3c2)o1 [lapatinib] (first compound 2 µM, partner dose 4 µM)",60.3
